Test results: PubChem BioAssay AID1508624 (National Center for Advancing Translational Sciences (NCATS), 2021)
The whole screen tested about 48,000 compounds, of which about 120 (0.25%) were called active. Roughly 4% stayed inconclusive and do not appear here. Calls come from the whole dose curve; as a rule, active = well fitted activation curve with a large enough effect; inconclusive = small, poorly fitted or top-dose-only effect, or another doubt; inactive = no such curve, though single readings can be large or run the other way. This is one part of the list.

Experiment: Primary qHTS for Identification of Small Molecule Activators of Huntingtin-Antisense Promoter Activity; note: nearly all actives have a fitted effect of over 55% in size
Conditions: HEK293 HTT-AS promoter firefly luciferase reporter, 24 h; series mostly up to 57.5 µM; activity change, positive = activation: at the top concentration
Procedure, shortened: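 Firefly luciferase readout (Dual-Glo, 10 min RT) after 24 h, 37 °C compound exposure (final up to 57.5 uM) of HEK293 reporter cells cultured 24 h beforehand; PTC124 at 50 uM final as control inhibitor; activity scaled vehicle 0%, zero RLU -100%.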

Activity change, positive = activation, inactive:
Cc1c(C(=O)Nc2cccc(C(F)(F)F)c2)oc2ccc3c(c12)C(=O)CC(C)(C)O3 23.6%
Cc1nc2cccnc2n1-c1cccc(C(=O)N2CCN(c3cccc(Cl)c3)CC2)c1 -31.3%
COc1ccc(-c2nnc(SCC(=O)NCCc3ccc(OC)c(OC)c3)nc2-c2ccc(OC)cc2)cc1 2.66% [at 11.5 µM, percent change from vehicle, -100% = no light]
Cc1ccc(C)c(N2CCN(S(=O)(=O)c3cc(-c4cc(C)no4)ccc3C)CC2)c1 -28.8%
CSc1ccc(CCNC(=O)c2cc(C)nc3c2c(C)nn3-c2ccccc2)cc1 -17.7%
Cc1ccc(-n2nc(CO)c(C(=O)NCCCCc3ccccc3)n2)cc1C -11.9%
CC(=O)N1CCN(c2ccc(OCc3nn(C)c(C)c3-c3cccc4c(CCCOc5cc(C)c(Cl)c(C)c5)c(C(=O)O)n(Cc5cccnc5)c34)cc2)CC1 -21.8%
Cc1cc(C)c(NC(=O)Cn2nc(-c3ccncc3)ccc2=O)c(C)c1 -2.99%
CCCn1c(=O)n(-c2ccccc2Cl)c(=O)c2sc3ccccc3c21 -3.18%
O=C(CN1C(=O)C(c2ccc(F)cc2)=NC12CCCCCC2)Nc1ccccc1Cl -21.4%
CC1=Nc2cc(C(=O)NCc3ccccc3Cl)ccc2Sc2c(C)ccc(C)c21 -40.7%
COc1ccc(-c2ccc3c(N)c(C(=O)Nc4ccc(C(F)(F)F)cc4)sc3n2)cc1OC -45.4%
Cc1nc2c(-c3ccc(F)cc3)c(C)nn2c(C)c1CCC(=O)N1CCN(c2ccccc2)CC1 -13.6%
CCCCn1c(SCC(=O)c2ccccc2)nc2c(sc3ccccc32)c1=O 8.41%
CCN(C(=O)Cn1nnc2sc3c(c2c1=O)CCC(C(C)(C)C)C3)c1cccc(C)c1 (centres undefined) -21.1%
CCc1ccc(CNC(=O)c2nn(-c3ccc(C)cc3)c(=O)c3c2c2ccccc2n3C)cc1 -25%
CC(=O)c1ccc(N2CCN(C(=O)C3CCCN(S(=O)(=O)c4ccc(Br)s4)C3)CC2)cc1 (centres undefined) -36.7%
COc1cc(CCC(=O)NCc2ccc3c(c2)CCN3C(=O)c2ccccc2)cc(OC)c1OC -25.9%
Cc1ccc(-n2nc3ccc(NC(=O)COc4ccccc4C)cc3n2)cc1 16.9%
CCC1CN(S(=O)(=O)c2cc(-c3cc(C)no3)ccc2C)c2cc(C)ccc2O1 (centres undefined) -1.74%
CCCN(CCC)CCCNC(=O)C1CCN(S(=O)(=O)CC)CC1 1.7%
COc1ccc(C)c2sc(N(Cc3cccnc3)C(=O)C3CCCCC3)nc12 -21.3%
CCCCCOc1c(Cl)cc(C(=O)N(Cc2ccc(C)o2)C2CCS(=O)(=O)C2)cc1Cl (centres undefined) -27.2%
CCOC(=O)c1ccc(N2C(=O)c3n[nH]c(-c4ccco4)c3C2c2ccc(O)cc2)cc1 (centres undefined) -37.8%
CCCn1cc(S(=O)(=O)c2ccccc2)c(=O)c2cc(F)c(N3CCCC(C)C3)cc21 (centres undefined) -8.01%
COc1ccc(C)cc1NC(=O)c1c(C)oc2ncn(CC(C)C)c(=O)c12 -16.3%
Cc1ccc(CSCC(=O)N2CCN(c3ccccc3F)CC2)cc1 -13.4%
Cc1ccc(S(=O)(=O)CC(=O)Nc2sc3c(c2C#N)CCCC3)cc1 -16%
CCn1cc(CCC(=O)NCc2ccccc2OC)c2ccccc21 -5.99%
CC1=C(C(=O)Nc2ccccc2)C(c2cccnc2)n2nc(SCc3ccccc3Cl)nc2N1 (centres undefined) -7.22%
CC(C)c1c(C(=O)Nc2ccccc2)c(-c2ccccc2)c(-c2ccc(F)cc2)n1CC[C@H](O)C[C@@H](O)CC(=O)O -12.9%
Cc1cc(C2CCCCC2)n(O)c(=O)c1
CCOC(=O)Cn1c(=O)n(C2CCCCC2)c2nc(-c3cccc(F)c3)nc(C(N)=O)c21 -14%
CCN[C@@H]1C[C@H](N)[C@@H](OC2OC(CN)=CCC2N)[C@H](O)[C@H]1O[C@H]1OC[C@](C)(O)[C@H](NC)[C@H]1O (some centres undefined) -3.54% [at 0.74 µM, percent change from vehicle, -100% = no light]
Cc1ccc(S(=O)(=O)c2cc3cc(C(=O)O)ccc3oc2=O)cc1 -27.6%
COc1cccc(Cn2c(CNC(=O)Cc3cccc(C)c3)nc3cccnc32)c1 -12.5%
Cc1ccccc1NC(=O)Cn1c(=O)oc2cc(Br)ccc21 -22.6%
COc1ccc(N(CC(=O)Nc2cccc(Cl)c2C)S(=O)(=O)c2c(C)nn(C)c2C)cc1 -24.1%
COc1ccc(C2=C(C)C(=NCCCN3CCN(c4cc(C)ccc4C)CC3)NS2(=O)=O)cc1 -35.6%
Cc1ccc(NC(=O)c2cccc3c2C(=O)N(C2CCCCC2)C3)c(C)c1 -4.38%
Cc1c(C)n(C)c2ccc(C(=O)NCCCN3CCCCC3C)cc12 (centres undefined) -10.1%
O=C(c1cc2c(s1)-c1ccccc1OC2)N1CCN(c2ccccc2F)CC1 -7.61%
CCCCN(CC)CCCNC(=O)c1nn(C)c2c1CS(=O)(=O)c1ccccc1-2 -1.12%
Cc1ccc(C)c(NC(=O)Cn2cc(C(=O)c3ccco3)c3ccccc32)c1 -26.6%
CC1=C(C(=O)OC(C)C)C(c2cccc([N+](=O)[O-])c2)C(C(=O)OC2CN(C(c3ccccc3)c3ccccc3)C2)=C(N)N1 (centres undefined) -62.2%
CCc1c(C)sc(NC(=O)c2cc(-c3cccc(Cl)c3)on2)c1C#N -5.66%
CCOC(=O)C1CCCN(c2cc(C)nc3c(-c4ccccc4OC)c(C)nn23)C1 (centres undefined) -30.5%
O=C(Nc1cccc(OCc2cc(=O)n3c4c(sc3n2)CCCC4)c1)c1ccc(F)cc1 5.68%
Cc1ccccc1-c1noc(CCC(=O)Nc2cccc(C)c2C)n1 -5.06%
Cc1ccc2nc(-c3cc(NC(=O)/C=C/c4ccccc4)ccc3Cl)oc2c1 3.89%
O=C(c1cccc(Cl)c1)N1CCN(CCc2ccncc2)CC1 -7.4%
COc1cc(Cl)c(C)cc1NC(=O)c1cn(C2CCCC2)c(=O)c2c1c1ccccc1n2C -8.19%
COc1ccc(C(=O)Nc2ccc3nc(N4CCC(C)CC4)cc(C)c3c2)cc1 -12.7%
CCOc1ccc(-c2nnc(SCC(=O)NCCc3ccc(OC)c(OC)c3)nc2-c2ccc(OCC)cc2)cc1 3.28%
CCOCCCNC(=O)C(Cc1ccccc1)NS(=O)(=O)c1ccc2c(c1)c(=O)n(C)c(=O)n2C (centres undefined) -14.7%
COc1cc(C(=O)NS(=O)(=O)c2ccccc2C)ccc1Cc1cn(C)c2ccc(NC(=O)OC3CCCC3)cc12 -30.6%
COc1ccc(Cl)cc1-n1c(/C=C/c2cccc3ccccc23)nc2ccccc2c1=O -16.8%
COc1ccc(-c2nc(CSc3nncn4c3cc3occc34)c(C)o2)cc1 -25.3%
CCOC(=O)c1c(NC(=O)COc2cc(C)ccc2C(C)C)sc(C)c1C -19.7%
CCOc1cccc(C(c2c(C)n(C)n(-c3ccccc3)c2=O)c2c(C)n(C)n(-c3ccccc3)c2=O)c1OC 3.74%
CCOc1ccc(NC(=O)c2nn(C)c3c2CS(=O)(=O)c2ccccc2-3)cc1 -6.32%
CCOc1ccccc1NC(=O)Cn1c(=O)n(-c2ccc(F)cc2)c(=O)c2sc3ccccc3c21 -3.94%
COc1ccc(CCNC(=O)CCCn2c(=O)c3ccccc3n(CC(=O)Nc3cc(Cl)ccc3C)c2=O)cc1OC -46.1%
Oc1c(C(c2ccc(Cl)cc2)N2CCC3(CC2)OCCO3)sc2nc(-c3ccco3)nn12 (centres undefined) 2.24%
O=C(Cn1c(=O)oc2ccccc21)Nc1ccc(C(=O)O)cc1 -6.92%
COc1cc(NC(=O)c2cccc3c2C(=O)N(C2CCCCC2)C3)cc(OC)c1 -1.31%
CCOc1ccccc1NC(=O)CSc1nc2cc(OC)c(OC)cc2c2nc(-c3ccccc3)nn12 8.55%
CCc1ccc(-c2[nH]c3c(c2-c2sc(C)c(C(=O)OC)c2O)c(=O)[nH]c(=O)n3C)cc1 -22.6%
Cc1nn(C(=O)c2ccc(Br)cc2)c(C)c1S(=O)(=O)N1CCOCC1 15.3%
Cc1coc2c(C)c3oc(=O)c(CCC(=O)NCCc4ccccc4)c(C)c3cc12 -6.79%
Cn1c(NCCO)nc2c1c(=O)n(Cc1cccc(F)c1)c(=O)n2C 0.762%
COc1cccc(/C=C/c2nc(C#N)c(NCCc3ccc(OC)c(OC)c3)o2)c1 -32.5%
COC(=O)c1ccc2c(c1)N(Cc1ccc(F)cc1)C(=O)c1ccccc1S2 -19.6%
CCCCN(CCCC)S(=O)(=O)c1ccc2oc(C(=O)NCc3ccc(C)cc3)c(C)c2c1 -11.9%
CCCCN1C(=O)C(O)(c2c[nH]c3ccccc23)c2cc(Br)ccc21 (centres undefined) -25.1%
Cc1ccc(NC(=O)Cn2c(=O)n(Cc3ccco3)c(=O)c3sc4ccccc4c32)cc1C -9.23%
O=C(CCCN1CCN(c2ccc(F)cc2)CC1)NC1c2ccccc2CSc2ccccc21 (centres undefined) -85.9%
CCOc1ccc(CCNC(=O)c2cnc3c(-c4ccc(F)cc4)c(C)nn3c2C)cc1OCC -6.34%
COc1ccc2c(c1)sc1ncc(C(=O)NCc3ccc(OC(C)C)cc3)c(=O)n12 -8.52%
COc1ccc(-c2cc(C(F)(F)F)nc(SCCC(=O)Nc3cc(C)ccc3O)n2)cc1 -56.7%
O=S1(=O)c2ccccc2N(Cc2cccc(C(F)(F)F)c2)c2ccccc21 -43.5%
CCCCN(CCCC)CCNC(=O)Cn1nc(CC)n2c(cc3sc(C)cc32)c1=O -11.1%
Cc1cccc(NC(=O)Cn2c(=O)n(CCCS(=O)(=O)C3CCCCC3)c(=O)c3ccccc32)c1 -25.3%
CCOCCCNC(=O)c1[nH]c2cc(C)ccc2c1Sc1ccc(Cl)cc1 -7.79%
CCOC(=O)c1ccc(-n2c(C)nc3c(cnn3-c3ccc(Cl)cc3)c2=O)cc1 -19%
CCc1cncnc1N1CCN(Cc2nc3ccc(C(F)(F)F)cc3[nH]2)CC1 -43.1%
COc1ccc(CCNC(=O)c2c(O)nc3c(C)cccn3c2=O)cc1 26.2%
Cc1ccc(-c2onc(C)c2C)cc1S(=O)(=O)N1c2ccccc2CC1C (centres undefined) -88.7%
CCOCCc1nn2c(=O)cc(COC(=O)c3ccccc3NC(=O)C3CCCCC3)nc2s1 -24.6%
